{"source": "PubChem BioAssay AID488969", "about": "(Vanderbilt High Throughput Screening Facility, 2010)", "note": "Over roughly 110,000 compounds, “z-score” has its median near -0.1; the highest 2% begin near 2. The list shows a part of the results. The source made the active and inactive calls.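 Rule for the calls: active = z-score in the third read window above 3 or below -3; inactive = the rest.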", "data": [{"target": "Metabotropic glutamate receptor 8 (Rattus norvegicus) (UniProt P70579)", "sequence (P70579 whole entry, looked up)": "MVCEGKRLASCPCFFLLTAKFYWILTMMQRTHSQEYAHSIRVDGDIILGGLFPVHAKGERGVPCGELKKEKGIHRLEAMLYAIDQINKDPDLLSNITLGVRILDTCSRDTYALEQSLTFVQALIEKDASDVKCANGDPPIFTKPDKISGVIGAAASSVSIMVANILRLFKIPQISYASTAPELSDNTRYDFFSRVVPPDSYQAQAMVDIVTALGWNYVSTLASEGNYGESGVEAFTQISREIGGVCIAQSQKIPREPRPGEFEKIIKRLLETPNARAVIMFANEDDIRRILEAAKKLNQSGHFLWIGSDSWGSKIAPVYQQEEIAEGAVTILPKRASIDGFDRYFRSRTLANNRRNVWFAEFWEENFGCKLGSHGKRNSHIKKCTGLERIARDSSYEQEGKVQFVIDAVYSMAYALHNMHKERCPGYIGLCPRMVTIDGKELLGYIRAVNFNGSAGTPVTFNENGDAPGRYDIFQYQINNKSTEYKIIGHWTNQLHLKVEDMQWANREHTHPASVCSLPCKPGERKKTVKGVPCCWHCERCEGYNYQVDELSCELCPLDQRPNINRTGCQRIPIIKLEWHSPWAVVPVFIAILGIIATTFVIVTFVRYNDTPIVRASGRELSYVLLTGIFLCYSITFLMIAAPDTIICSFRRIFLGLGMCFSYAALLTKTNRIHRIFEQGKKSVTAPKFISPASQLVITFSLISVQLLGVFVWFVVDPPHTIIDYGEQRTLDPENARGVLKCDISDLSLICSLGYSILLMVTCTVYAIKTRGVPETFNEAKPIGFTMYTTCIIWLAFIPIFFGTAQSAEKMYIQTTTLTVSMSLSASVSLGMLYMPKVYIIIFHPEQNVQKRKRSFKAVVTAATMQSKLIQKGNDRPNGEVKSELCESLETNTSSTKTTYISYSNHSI", "experiment": "mGluR8 Gi/Go-coupled signaling modulation – cell-based, rat, thallium flux, HTS, primary screen (AID 488969)", "conditions": "HEK293 rat mGluR8, GIRK (G protein-gated inwardly rectifying potassium channel) thallium flux, FluoZin2; at 10 µM; stronger effect = higher value; submaximal glutamate (EC20) added with thallium", "values": [{"smiles": "CCOCc1nnc(NC(=O)CSc2ccccc2)s1", "z-score": 0.394}, {"smiles": "O=C(Nc1nnc(-c2ccc3c(c2)CCCC3)o1)c1ccccc1", "z-score": "active: 15.5"}, {"smiles": "Cc1nc2scc(-c3cccs3)c2c(=O)n1-n1cccc1", "z-score": 0.824}, {"smiles": "O=C(O)Cc1ccc2c(c1)N(S(=O)(=O)c1cccc(C(F)(F)F)c1)CC(C(=O)O)O2", "note": "(centres undefined)", "z-score": -0.121}, {"smiles": "N#Cc1c(SCC(=O)OCc2ccccc2)nsc1SCC(=O)OCc1ccccc1", "z-score": 0.0135}, {"smiles": "Cc1ccc(C(=O)NCCSCc2ccc(Cl)cc2Cl)cc1[N+](=O)[O-]", "z-score": 0.0726}, {"smiles": "COc1ccc(N=C2C(=Nc3ccc(OC)cc3)N(c3ccc(OC)cc3)C(=S)N2c2ccccc2)cc1", "z-score": -0.0732}, {"smiles": "Cc1n[nH]c(=S)c2nn(-c3ccccc3F)c(C)c12", "z-score": -0.144}, {"smiles": "COc1ccc(C2Nc3ccccc3C(=O)N2c2ccc(F)cc2)cc1Cn1nnc2ccccc21", "note": "(centres undefined)", "z-score": -0.647}, {"smiles": "O=C(CSc1nnnn1-c1ccccc1)N1N=CCC1c1ccccc1", "note": "(centres undefined)", "z-score": -0.496}, {"smiles": "COc1ccc(NC(=O)CN2CCN(CC(=O)Nc3ccccc3F)CC2)cc1OC", "z-score": 0.797}, {"smiles": "O=C(c1ccc(S(=O)(=O)N2CCOCC2)cc1)N1CCN(C2=NS(=O)(=O)c3ccccc32)CC1", "z-score": -0.0984}, {"smiles": "N/C(=N\\OC(=O)Cc1ccc(Cl)cc1)c1cccnc1", "z-score": -0.232}, {"smiles": "CCOC(=O)c1ccc(N2CC(O)=C(c3nc4ccccc4c(=O)[nH]3)C2=N)cc1", "z-score": -0.431}, {"smiles": "Cc1ccc(N(C(=O)Nc2ccccc2)C2=NCC(C)S2)cc1", "note": "(centres undefined)", "z-score": -0.166}, {"smiles": "CCOC(=O)C(CSCC(=O)c1ccc(Cl)cc1)NC(=O)OC(C)(C)C", "note": "(centres undefined)", "z-score": -0.409}, {"smiles": "OC(c1ccccc1)C1CN(Cc2ccccc2)CCC1(O)c1ccccc1", "note": "(centres undefined)", "z-score": 1.94}, {"smiles": "O=C(CCCC(=O)OCC(=O)NC1CCCC1)Nc1ccccn1", "z-score": 0.649}, {"smiles": "CCC(=O)Nc1ccc(-c2nnc(SCC(=O)N3CCCCC3)n2C)cc1", "z-score": 0.0527}, {"smiles": "CC1(C)C2CCC1(C)C(NC1=NCCC1)C2", "note": "(centres undefined)", "z-score": -0.924}, {"smiles": "CC1Cc2cc(/C(O)=C3/C(=O)C(=O)N(CCCN(C)C)C3c3ccncc3)ccc2O1", "note": "(centres undefined)", "z-score": 0.147}, {"smiles": "Cc1nc2ccccn2c1C(=O)CSc1ccc(Cl)cc1Cl", "z-score": -0.488}, {"smiles": "COC(=O)c1cc(NCc2cccs2)ccc1N1CCOCC1", "z-score": -0.336}, {"smiles": "CCOc1ccc(N(CC(=O)O)S(=O)(=O)c2ccc(F)cc2)cc1", "z-score": 1.12}, {"smiles": "Cc1oc(-c2ccccc2)cc1C(=O)Nc1cccc2ccccc12", "z-score": -0.055}, {"smiles": "Cc1ccc2oc(-c3cccc(NC(=S)NC(=O)c4cccs4)c3)nc2c1", "z-score": "active: 3.78"}, {"smiles": "CCOc1ccc(NC(=O)N2CCC(c3ccc(C)cc3)C2)cc1", "note": "(centres undefined)", "z-score": -0.0972}, {"smiles": "CC1CCN(S(=O)(=O)c2ccc(C(=O)Nc3ccccc3-c3nc4ccccc4[nH]3)cc2)CC1", "z-score": -0.163}, {"smiles": "O=C(/C=C/c1ccccc1)N/C(=C/c1ccccc1)C(=O)Nc1ccccc1O", "z-score": -0.044}, {"smiles": "Cc1ccc(Sc2ncccc2COC(=O)Nc2ccccc2)cc1", "z-score": -0.0605}, {"smiles": "CCOC(=O)C1C(=O)N(C(=O)c2ccc(OC)cc2)CC1c1ccccc1", "note": "(centres undefined)", "z-score": -0.335}, {"smiles": "O=C(O)c1ccc(C2SCC(=O)N2Cc2ccccc2)cc1", "note": "(centres undefined)", "z-score": 0.275}, {"smiles": "C/C(=C1/SC(N2CCOCC2)=NC1=O)c1ccc(Cl)cc1", "z-score": -0.254}, {"smiles": "COc1ccc2c(-c3ccccc3)cc(SCC(=O)NC3CCS(=O)(=O)C3)nc2c1", "note": "(centres undefined)", "z-score": -0.06}, {"smiles": "COc1cc(S(=O)(=O)Nc2ccc(C)cc2)ccc1N=Cc1c(C)[nH]n(-c2ccc(C)cc2)c1=O", "z-score": -0.0253}, {"smiles": "N/C(=N\\OCC(=O)Nc1ccccc1)c1nonc1N", "z-score": 0.0337}, {"smiles": "CCC(C)(C)NC(=O)C(c1ccncc1)N(Cc1ccc(C)cc1)C(=O)c1csnn1", "note": "(centres undefined)", "z-score": 0.742}, {"smiles": "O=C(COc1ccc(Cl)cc1Cl)NCCCn1ccnc1", "z-score": 0.0498}, {"smiles": "CCOC(=O)c1ccc2c(c1)nc(SCC(=O)N1CCCCC1)n2CC", "z-score": 0.447}, {"smiles": "CCOC(=O)/C(=C\\Nc1ccc(OC(F)(F)F)cc1)Sc1ncc(C(F)(F)F)cc1Cl", "z-score": -0.436}, {"smiles": "Cc1cc(NC(=O)CSc2nc(CC(C)(C)C)nc3c2c(=O)n(C)c(=O)n3C)no1", "z-score": -0.0135}, {"smiles": "N#Cc1sc2nc(N3CCCCC3)c3c(c2c1N)CCCC3", "z-score": -0.0906}, {"smiles": "Cc1ccc(C(=O)c2ccc([N+](=O)[O-])cc2)c(C)c1", "z-score": -0.106}, {"smiles": "Cc1nc2ccc(S(=O)(=O)NCC(=O)N3CCN(c4ccccn4)CC3)cc2s1", "z-score": -0.164}, {"smiles": "COc1ccccc1N1CCN(C(=O)c2ccc3nc(-c4ccco4)c(-c4ccco4)nc3c2)CC1", "z-score": -0.672}, {"smiles": "Cc1nc(CS(=O)(=O)c2ccccc2)cc(N2CCOCC2)n1", "z-score": -0.194}, {"smiles": "CCOC(=O)Cn1c(=N)n(Cc2ccccc2)c2ccccc21", "z-score": 0.46}, {"smiles": "O=C(NC(Cc1ccccc1)C(=O)O)/C(=C\\c1ccc(F)cc1)NC(=O)c1ccccc1", "note": "(centres undefined)", "z-score": -0.491}, {"smiles": "O=C(Nc1cccc2ncccc12)c1cccc(F)c1", "z-score": -0.113}, {"smiles": "CCCCOP(=O)(OCCCC)C1(NS(=O)(=O)c2ccccc2)C=CC(=O)c2ccccc21", "note": "(centres undefined)", "z-score": -0.186}, {"smiles": "O=C1c2cc(S(=O)(=O)NCCCO)ccc2-c2ccc(S(=O)(=O)NCCCO)cc21", "z-score": 0.152}, {"smiles": "O=[N+]([O-])c1cc(-c2nnc(-c3ccccc3)o2)ccc1Oc1ccc(Cl)cc1", "z-score": -0.127}, {"smiles": "CC(C(=O)NC(=O)NC1CCCCC1)N1CCN(C(c2ccccc2)c2ccccc2)CC1", "note": "(centres undefined)", "z-score": 0.532}, {"smiles": "COc1ccccc1NC(=O)N1CCN(c2cccc(C(F)(F)F)c2)CC1", "z-score": -0.14}]}]}
